Source: PubChem BioAssay AID463173 (ICCB-Longwood Screening Facility, Harvard Medical School, 2010)
Screen size: about 52,000 compounds; about 4,300 (8.3%) were called active. Cut-off read from the data, not from the text of the source: active = survival mostly below about 52% (no sharp cut-off); inactive = mostly above about 56%. The list shows a part of the results.

Each molecule was assayed on DeltatarO mutant (assay: S. aureus survival, RN4220 and DeltatarO strains – OD600, teichoic acid synthesis inhibitors, primary screen (AID 463173)). Details: S. aureus RN4220 wild type/DeltatarO growth, OD600, 18 h, hits give low values, screened at 18.75 µg/mL (by protocol).

Question: Which survival does the source give for `CCOc1cc(-c2nnc(SCC(=O)NCc3ccc(C)cc3)nc2-c2ccc(OC)c(OCC)c2)ccc1OC` here?
Answer: inactive: 78%

Question: `Cc1ccc(OCC(=O)OCc2cc(=O)n3c(C)csc3n2)cc1` was tested. Which survival did it give?
Answer: inactive: 86%

Question: `Cc1ccccc1NC(=O)N1CCC(CN2CCCC2)CC1` was tested. Which survival did it give?
Answer: inactive: 83%

Question: With `N#CC1=C2SCN(C3CCCCC3)CN2C(=O)CC1c1ccc(F)cc1` (stereo not drawn) as the molecule, how does the survival read?
Answer: inactive: 87%

Question: How did the survival turn out when `CCC(=O)N1CCc2cc(S(=O)(=O)NC(Cc3ccccc3)C(=O)NCc3ccc(F)cc3)ccc21` (stereo not drawn) was run?
Answer: inactive: 60%

Question: With `CCc1cccc(-n2c(=O)c3cccnc3n2CC(=O)Nc2ccccc2C(=O)OC)c1` as the molecule, how does the survival read?
Answer: inactive: 73%

Question: `CCC1CN(C(=O)Nc2cc(OC)cc(OC)c2)c2ccccc2S1` (stereo not drawn) was tested. Which survival did it give?
Answer: inactive: 97%

Question: `CCOc1ccc(NC(=O)c2ccc3nc(Cc4ccccc4)oc3c2)cc1` was tested. Which survival did it give?
Answer: inactive: 103%

Question: `Cc1ccc2oc(C(=O)Nc3sc4c(c3C(=O)NCc3ccccc3)CCCC4)cc(=O)c2c1` was tested. Which survival did it give?
Answer: inactive: 66%

Question: Which survival does the source give for `CCn1cc(C(=O)N2CCN(c3ccccc3OC)CC2)c(=O)c2cc(S(=O)(=O)N3CCC(C)CC3)ccc21` here?
Answer: inactive: 85%

Question: How did the survival turn out when `Cc1ccc(-n2ncc3c(N4CCCCCC4)ncnc32)cc1C` was run?
Answer: inactive: 86%

Question: Which survival does the source give for `COc1ccccc1CNC(=O)c1ccc2c(c1)N(Cc1ccc(C)cc1)CCS2` here?
Answer: inactive: 83%

Question: Which survival does the source give for `COc1ccc(CSCCN)cc1Cl` here?
Answer: inactive: 74%

Question: For `CC(C)N(C(=O)Cn1nnc2ccccc21)C(C(=O)NCc1ccco1)c1ccccc1` (stereo not drawn), which survival is on record?
Answer: inactive: 95%

Question: `CCc1ccccc1NC(=O)CN1C(=O)COc2ccc(S(=O)(=O)N3CCCCCC3)cc21` was tested. Which survival did it give?
Answer: inactive: 88%

Question: How did the survival turn out when `CCN(CC)S(=O)(=O)c1ccc2c(c1)N(CC(=O)NCC(C)c1ccccc1)C(=O)CO2` (stereo not drawn) was run?
Answer: inactive: 82%

Question: With `O=S1(=O)CCC(NS(=O)(=O)c2ccccc2)C1` (stereo not drawn) as the molecule, how does the survival read?
Answer: inactive: 96%

Question: With `CCN(CC)C(=O)C1=CC(c2ccc3c(c2)OCO3)=NS(=O)(=O)N1C` as the molecule, how does the survival read?
Answer: inactive: 86%

Question: How did the survival turn out when `Cc1ccc(NC(=O)CSc2nc3ccc(NC(=O)CCc4ccccc4)cc3s2)c(C)c1` was run?
Answer: inactive: 79%

Question: `O=C(CCCCn1c(=O)c2ccccc2n(Cc2ccccc2F)c1=O)NCc1ccccc1Cl` was tested. Which survival did it give?
Answer: active: 97%

Question: For `O=S(=O)(NCCc1nnc2ccc(SCc3c(F)cccc3Cl)nn12)c1ccccc1`, which survival is on record?
Answer: inactive: 58%

Question: Which survival does the source give for `CCC(Oc1ccccc1)C(=O)Nc1ccc(OCc2cc(=O)n3ccc(C)cc3n2)cc1` (stereo not drawn) here?
Answer: inactive: 91%

Question: Which survival does the source give for `Cc1oc(-c2ccccc2F)nc1CSCC(=O)NCCc1ccccc1` here?
Answer: inactive: 94%

Question: Which survival does the source give for `CNS(=O)(=O)c1cn(CC(=O)N2CCN(c3cccc(Cl)c3)CC2)cc1S(=O)(=O)NC` here?
Answer: inactive: 69%

Question: For `COc1ccc(NC(=O)C2=C(C)Nc3ncnn3C2c2ccccn2)cc1` (stereo not drawn), which survival is on record?
Answer: inactive: 81%

Question: For `CCCCn1cc(S(=O)(=O)c2ccccc2)c(=O)c2cc(F)c(N3CCC(C)CC3)cc21`, which survival is on record?
Answer: inactive: 68%

Question: With `CCOC(=O)c1cnc2c(C)cc(C)cc2c1Nc1ccc(OCc2ccccc2)cc1` as the molecule, how does the survival read?
Answer: active: 17%

Question: For `NC(=O)CSc1n[nH]c(-c2ccco2)n1`, which survival is on record?
Answer: inactive: 64%

Question: `O=C(CN1CCN(CC(=O)Nc2ccccc2F)CC1)Nc1ccc(Cl)c(C(F)(F)F)c1` was tested. Which survival did it give?
Answer: inactive: 83%

Question: `CCOC(=O)C1=C(C(F)(F)F)Nc2ncnn2C1c1cccc(OC)c1OC` (stereo not drawn) was tested. Which survival did it give?
Answer: inactive: 82%

Question: With `CC(C)CCNC(=O)c1cc(Sc2ccc(F)cc2F)nc2ccccc12` as the molecule, how does the survival read?
Answer: inactive: 64%

Question: `CCC(=O)N(C)c1nnc(-c2cccc(C)c2)s1` was tested. Which survival did it give?
Answer: inactive: 76%

Question: `CCCCOc1ccc(CN2C(=O)C(=O)c3cc(C)ccc32)cc1OC` was tested. Which survival did it give?
Answer: inactive: 122%

Question: Which survival does the source give for `COc1ccccc1CNc1ccc(-c2nc(-c3cccc(C)c3)no2)cc1[N+](=O)[O-]` here?
Answer: inactive: 86%

Question: Which survival does the source give for `CCN(CC)C(=O)c1sc2c(c1C)c(=O)n(CCc1ccccc1)c(=O)n2Cc1cccc(Cl)c1` here?
Answer: inactive: 102%

Question: `CCOc1ccccc1N1CC(c2nc3ccccc3n2CCCCOc2cc(C)ccc2C)CC1=O` (stereo not drawn) was tested. Which survival did it give?
Answer: active: 47%

Question: `CN(C)c1ccc(CNC(=O)c2ccc3c(c2)N(C)C(=O)C2CCCCN32)cc1` (stereo not drawn) was tested. Which survival did it give?
Answer: inactive: 117%

Question: With `O=C(c1cnc(N2CCOCC2)c2ccccc12)N1CCN(c2ccccc2F)CC1` as the molecule, how does the survival read?
Answer: inactive: 71%

Question: Which survival does the source give for `O=C(NC1CCCC1)C1CCCN1C(=O)Nc1ccccc1` (stereo not drawn) here?
Answer: inactive: 89%

Question: For `CCOc1ccc(CNC(=O)CCc2cn(CC)c3ccccc23)cc1`, which survival is on record?
Answer: inactive: 76%

Question: How did the survival turn out when `COc1cccc(C(=O)Nc2ccc3c(c2)COC3=O)c1` was run?
Answer: inactive: 77%

Question: Which survival does the source give for `CCNc1nc(N2CCCC2)nc(N2CCCC2)n1` here?
Answer: inactive: 100%

Question: `CCc1ccc(NC(=O)C2CCN(S(=O)(=O)c3c(C)noc3/C=C\c3ccc(OC)cc3)CC2)cc1` was tested. Which survival did it give?
Answer: inactive: 66%

Question: How did the survival turn out when `COc1cc(C(=O)Nc2ccc(OCc3cc(=O)n4cccc(C)c4n3)cc2)cc(OC)c1OC` was run?
Answer: inactive: 128%

Question: Which survival does the source give for `O=C(NCCc1ccccc1)c1ccc(CSc2nc3ccncc3n2Cc2cccc(F)c2)cc1` here?
Answer: inactive: 109%

Question: How did the survival turn out when `CCC1=C(c2ccc(C)cc2)S(=O)(=O)N=C1N1CCC(C(=O)N2CCCCC2)CC1` was run?
Answer: inactive: 92%

Question: `CCS(=O)(=O)NCCc1csc2nc(-c3ccc(C)cc3)nn12` was tested. Which survival did it give?
Answer: inactive: 83%

Question: How did the survival turn out when `O=C(COCc1cc(-c2cccs2)on1)Nc1cccc(O)c1` was run?
Answer: active: 0%

Question: With `Cc1ccc(C)c(NC(=O)Nc2csc3c2CCCC3)c1` as the molecule, how does the survival read?
Answer: inactive: 75%

Question: For `CCOc1ccc2nc(N3CCCC(C(=O)NCc4ccc(C)cc4)C3)sc2c1` (stereo not drawn), which survival is on record?
Answer: inactive: 71%

Question: For `COc1ccc2sc(N)nc2c1`, which survival is on record?
Answer: inactive: 93%

Question: `COc1ccccc1NC(=O)Cn1c(=O)n(Cc2nc(-c3ccccc3)no2)c(=O)c2ccccc21` was tested. Which survival did it give?
Answer: inactive: 96%

Question: `COc1ccc(-c2nn(C)c3sc(C(=O)N4CCN(c5cccc(Cl)c5)CC4)cc23)cc1OC` was tested. Which survival did it give?
Answer: active: 54%

Question: `CC1CCc2c(sc(NC(=O)c3cc(-c4ccc(Br)cc4)on3)c2C(N)=O)C1` (stereo not drawn) was tested. Which survival did it give?
Answer: inactive: 173%

Question: For `Cc1c(CNCCCc2ccccc2)c(C(=O)O)c(C)n1Cc1cccc(Cl)c1`, which survival is on record?
Answer: inactive: 63%

Question: With `COc1ccc(NC(=O)C2CCN(S(=O)(=O)c3c(C)noc3/C=C/c3ccc(C)cc3)CC2)cc1Cl` as the molecule, how does the survival read?
Answer: inactive: 82%

Question: Which survival does the source give for `CCNc1nc(NC(C)(C)C)nc(N2CCCCC2)n1` here?
Answer: inactive: 98%

Question: For `Cc1ccc(-n2cnc3cc(C(=O)NC4CCCCCC4)ccc32)cc1Cl`, which survival is on record?
Answer: inactive: 131%
